Literature values as cited in paper PMC11006913.
Numbering of substitutions follows the chain as printed. Some of the results follow.

What was measured:
Settings in all cases: PBM; conditions not shown; double strand, one strand shown; scale: upbm affinity estimate (log intensity, higher = more binding, comparable within an allelic series)
[1] = biological target: ARX (Homo sapiens) (UniProt Q96QS3)
[2] = biological target: ARX L343Q (Homo sapiens) (UniProt Q96QS3)
[3] = biological target: ARX P353L (Homo sapiens) (UniProt Q96QS3)
[4] = biological target: ARX P353R (Homo sapiens) (UniProt Q96QS3)
[5] = biological target: ARX R332H (Homo sapiens) (UniProt Q96QS3)
[6] = biological target: ARX T333N (Homo sapiens) (UniProt Q96QS3)
[7] = biological target: ISX (Homo sapiens) (UniProt Q2M1V0)
[8] = biological target: ISX R83Q (Homo sapiens) (UniProt Q2M1V0)
[9] = biological target: PITX2 L100Q (Homo sapiens) (UniProt Q99697)
[10] = biological target: PITX2 R108H (Homo sapiens) (UniProt Q99697)
[11] = biological target: PITX2 R130W (Homo sapiens) (UniProt Q99697)
[12] = biological target: PITX2 T114P (Homo sapiens) (UniProt Q99697)
[13] = biological target: T1, PBX4 (Homo sapiens) (UniProt Q9BYU1)
T1 sequence: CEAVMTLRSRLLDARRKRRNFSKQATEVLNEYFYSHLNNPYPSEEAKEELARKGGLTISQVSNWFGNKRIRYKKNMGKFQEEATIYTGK

[14] = biological target: T2, PBX4 R215Q (Homo sapiens) (UniProt Q9BYU1)
T2 sequence: T1 sequence with R19Q

[15] = biological target: NKX2-5 K183E (Homo sapiens) (UniProt P52952)
[16] = biological target: NKX2-5 R161P (Homo sapiens) (UniProt P52952)
[17] = biological target: NKX2-5 R190C (Homo sapiens) (UniProt P52952)
[18] = biological target: PROP1 R112Q (Homo sapiens) (UniProt O75360)
[19] = biological target: PROP1 R99Q (Homo sapiens) (UniProt O75360)
[20] = biological target: HOXD13 I322L (Homo sapiens) (UniProt P35453)
Sequence of UniProt P35453 (P35453 263-343 I322L): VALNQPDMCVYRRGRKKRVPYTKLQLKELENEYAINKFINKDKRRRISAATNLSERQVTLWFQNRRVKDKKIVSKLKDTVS

In the case of AGGCCCCC [8-mer AGGCCCCC], the binding signal [1] is listed as 9.86, the binding signal [2] is listed as 9.83 and the binding signal [3] is listed as 9.92. The binding signal [4] was 9.75, the binding signal [5] was 9.74 and the binding signal [6] was 9.91. For the same sequence, the binding signal [7] was 9.59, the binding signal [8] was 9.75 and the binding signal [9] was 8.35. The binding signal [10] was 7.88, the binding signal [11] was 7.79 and the binding signal [12] was 7.97.

In the case of ATCAATTC [8-mer ATCAATTC], the binding signal [1] is listed as 11.2, the binding signal [2] is listed as 10.7 and the binding signal [4] is listed as 10.6.

For CCTGGGCC [8-mer CCTGGGCC], the binding signal [1] is given as 10.1, the binding signal [2] is given as 9.98 and the binding signal [3] is given as 10.1. For the same sequence, the binding signal [4] was 9.96, the binding signal [5] was 9.94 and the binding signal [6] was 10.1. For the same sequence, the binding signal [7] was 9.77 and the binding signal [8] was 9.7.

In the case of GATGCCCC [8-mer GATGCCCC], the binding signal [1] is listed as 10.2, the binding signal [2] is listed as 10.2 and the binding signal [3] is listed as 10.1. The binding signal [4] was 10.2, the binding signal [5] was 10.2 and the binding signal [6] was 10.2. The binding signal [13] was 9.84 and the binding signal [14] was 9.77.

In the case of GCGGACGC [8-mer GCGGACGC], the binding signal [1] is given as 10.1, the binding signal [2] is given as 10.1 and the binding signal [3] is given as 9.99. The binding signal [4] was 10.1, the binding signal [5] was 10.1 and the binding signal [6] was 10.1. The binding signal [9] was 7.96, the binding signal [10] was 8.06 and the binding signal [11] was 7.9. The binding signal [12] was 8.07.

In the case of GGGCGCCC [8-mer GGGCGCCC], the binding signal [1] is given as 9.95, the binding signal [2] is given as 10.1 and the binding signal [3] is given as 10. The binding signal [4] was 9.97, the binding signal [5] was 10.1 and the binding signal [6] was 10.2. The binding signal [9] was 8.03, the binding signal [10] was 7.88 and the binding signal [11] was 7.67. For the same sequence, the binding signal [12] was 7.92.

In the case of CTTGGGCC [8-mer CTTGGGCC], the binding signal [1] is listed as 10.1, the binding signal [2] is listed as 10.1 and the binding signal [3] is listed as 10.1. For the same sequence, the binding signal [4] was 10, the binding signal [5] was 10 and the binding signal [6] was 10.1. For the same sequence, the binding signal [15] was 10.1, the binding signal [16] was 10.3 and the binding signal [17] was 9.99.

For GGGCCTCA [8-mer GGGCCTCA], the binding signal [1] is listed as 10.2, the binding signal [2] is listed as 9.94 and the binding signal [3] is listed as 10.2. The binding signal [4] was 9.94, the binding signal [5] was 9.99 and the binding signal [6] was 10.2. For the same sequence, the binding signal [18] was 10.9 and the binding signal [19] was 10.8.

In the case of ACCGCCTC [8-mer ACCGCCTC], the binding signal [1] is listed as 10.2, the binding signal [2] is listed as 10.1 and the binding signal [3] is listed as 10.3. The binding signal [4] was 10.1, the binding signal [5] was 10.1 and the binding signal [6] was 10.3. For the same sequence, the binding signal [15] was 10.3, the binding signal [16] was 10.4 and the binding signal [17] was 10.2.

For CGGGCACG [8-mer CGGGCACG], the binding signal [1] is given as 10.2, the binding signal [2] is given as 10.1 and the binding signal [3] is given as 10.2. The binding signal [4] was 10.1, the binding signal [5] was 10.1 and the binding signal [6] was 10.2. For the same sequence, the binding signal [18] was 10.8 and the binding signal [19] was 10.8.

In the case of ATCGTTAA [8-mer ATCGTTAA], the binding signal [1] is listed as 11.6, the binding signal [2] is listed as 10.8 and the binding signal [3] is listed as 11.6. The binding signal [4] was 10.7, the binding signal [5] was 10.8 and the binding signal [20] was 12.3.

For CCGGTGAC [8-mer CCGGTGAC], the binding signal [1] is given as 10.2, the binding signal [2] is given as 10.2 and the binding signal [3] is given as 10.2. The binding signal [4] was 10.2, the binding signal [5] was 10.1 and the binding signal [6] was 10.2. The binding signal [15] was 10.1, the binding signal [16] was 10.1 and the binding signal [17] was 10.1. The binding signal [9] was 8.23, the binding signal [10] was 8.04 and the binding signal [11] was 7.97. The binding signal [12] was 8.08.

In the case of AATTACTG [8-mer AATTACTG], the binding signal [1] is listed as 12.6, the binding signal [2] is listed as 11 and the binding signal [3] is listed as 12.1. For the same sequence, the binding signal [4] was 10.9, the binding signal [5] was 11 and the binding signal [6] was 11.7. The binding signal [19] was 12.2.

For CCCAGAGG [8-mer CCCAGAGG], the binding signal [1] is given as 10, the binding signal [2] is given as 9.96 and the binding signal [3] is given as 9.9. For the same sequence, the binding signal [4] was 9.89, the binding signal [5] was 10 and the binding signal [6] was 10.1. The binding signal [9] was 8.13, the binding signal [10] was 7.98 and the binding signal [11] was 7.79. For the same sequence, the binding signal [12] was 7.97, the binding signal [18] was 10.8 and the binding signal [19] was 10.8.
